{
  "source": "paper PMC9911399",
  "about": "“Two distinct binding modes provide the RNA-binding protein RbFox with extraordinary sequence specificity”",
  "binders": {"B1": {"name": "UUGUCCA (DNA:RNA)", "RNA": "GGGAGACCGGAAUUCAGAUUGUCCUUGUCCAUUAAAUCCCGUCGUAGCCACCA", "DNA 1": "CAATCTGAATTCCGGTCTCCC", "DNA 2": "TGGTGGCTACGACGGGATT"}, "B2": {"name": "CAACCCG (DNA:RNA)", "RNA": "B1 RNA with U25C, U26A, G27A, U28C, A31G", "DNA 1": "CAATCTGAATTCCGGTCTCCC", "DNA 2": "TGGTGGCTACGACGGGATT"}, "B3": {"name": "UAAGGGC (DNA:RNA)", "RNA": "B1 RNA with U26A, G27A, U28G, C29G, C30G, A31C", "DNA 1": "CAATCTGAATTCCGGTCTCCC", "DNA 2": "TGGTGGCTACGACGGGATT"}, "B4": {"name": "UAAGUUA (DNA:RNA)", "RNA": "B1 RNA with U26A, G27A, U28G, C29U, C30U", "DNA 1": "CAATCTGAATTCCGGTCTCCC", "DNA 2": "TGGTGGCTACGACGGGATT"}, "B5": {"name": "UAAAUGG (DNA:RNA)", "RNA": "B1 RNA with U26A, G27A, U28A, C29U, C30G, A31G", "DNA 1": "CAATCTGAATTCCGGTCTCCC", "DNA 2": "TGGTGGCTACGACGGGATT"}, "B6": {"name": "ACGGUAC (DNA:RNA)", "RNA": "B1 RNA with U25A, U26C, U28G, C29U, C30A, A31C", "DNA 1": "CAATCTGAATTCCGGTCTCCC", "DNA 2": "TGGTGGCTACGACGGGATT"}, "B7": {"name": "AGCGAUC (DNA:RNA)", "RNA": "GGGAGACCGGAAUUCAGAUUGUCCAGCGAUCUUAAAUCCCGUCGUAGCCACCA", "DNA 1": "CAATCTGAATTCCGGTCTCCC", "DNA 2": "TGGTGGCTACGACGGGATT"}, "B8": {"name": "UCUUAGC (DNA:RNA)", "RNA": "B7 RNA with A25U, G26C, C27U, G28U, U30G", "DNA 1": "CAATCTGAATTCCGGTCTCCC", "DNA 2": "TGGTGGCTACGACGGGATT"}, "B9": {"name": "CUGGUAA (DNA:RNA)", "RNA": "B1 RNA with U25C, U28G, C29U, C30A", "DNA 1": "CAATCTGAATTCCGGTCTCCC", "DNA 2": "TGGTGGCTACGACGGGATT"}, "B10": {"name": "CUAGACC (DNA:RNA)", "RNA": "B7 RNA with A25C, G26U, C27A, U30C", "DNA 1": "CAATCTGAATTCCGGTCTCCC", "DNA 2": "TGGTGGCTACGACGGGATT"}, "B11": {"name": "GCCUGAG (DNA:RNA)", "RNA": "B7 RNA with A25G, G26C, G28U, A29G, U30A, C31G", "DNA 1": "CAATCTGAATTCCGGTCTCCC", "DNA 2": "TGGTGGCTACGACGGGATT"}, "B12": {"name": "GUUGGAA (DNA:RNA)", "RNA": "B1 RNA with U25G, G27U, U28G, C29G, C30A", "DNA 1": "CAATCTGAATTCCGGTCTCCC", "DNA 2": "TGGTGGCTACGACGGGATT"}, "B13": {"name": "AUGACAC (DNA:RNA)", "RNA": "B1 RNA with U25A, U28A, C30A, A31C", "DNA 1": "CAATCTGAATTCCGGTCTCCC", "DNA 2": "TGGTGGCTACGACGGGATT"}, "B14": {"name": "ACCGAGG (DNA:RNA)", "RNA": "B7 RNA with G26C, U30G, C31G", "DNA 1": "CAATCTGAATTCCGGTCTCCC", "DNA 2": "TGGTGGCTACGACGGGATT"}, "B15": {"name": "UAUUAUA (DNA:RNA)", "RNA": "B1 RNA with U26A, G27U, C29A, C30U", "DNA 1": "CAATCTGAATTCCGGTCTCCC", "DNA 2": "TGGTGGCTACGACGGGATT"}, "B16": {"name": "UGCUUAG (DNA:RNA)", "RNA": "B7 RNA with A25U, G28U, A29U, U30A, C31G", "DNA 1": "CAATCTGAATTCCGGTCTCCC", "DNA 2": "TGGTGGCTACGACGGGATT"}, "B17": {"name": "CGUCCGA (DNA:RNA)", "RNA": "B1 RNA with U25C, U26G, G27U, U28C, C30G", "DNA 1": "CAATCTGAATTCCGGTCTCCC", "DNA 2": "TGGTGGCTACGACGGGATT"}, "B18": {"name": "CCAGAUC (DNA:RNA)", "RNA": "B7 RNA with A25C, G26C, C27A", "DNA 1": "CAATCTGAATTCCGGTCTCCC", "DNA 2": "TGGTGGCTACGACGGGATT"}, "B19": {"name": "ACGAGAA (DNA:RNA)", "RNA": "B1 RNA with U25A, U26C, U28A, C29G, C30A", "DNA 1": "CAATCTGAATTCCGGTCTCCC", "DNA 2": "TGGTGGCTACGACGGGATT"}, "B20": {"name": "UUGAUCU (DNA:RNA)", "RNA": "B1 RNA with U28A, C29U, A31U", "DNA 1": "CAATCTGAATTCCGGTCTCCC", "DNA 2": "TGGTGGCTACGACGGGATT"}},
  "note": "Changes are numbered by the printed parent chain; changes in the protein carry UniProt numbers. This is one part of the list.",
  "data": [
    {"biological_target": "T1, RBFOX1 RRM (Homo sapiens, UniProt Q9NWB1 109-208)", "T1 sequence": "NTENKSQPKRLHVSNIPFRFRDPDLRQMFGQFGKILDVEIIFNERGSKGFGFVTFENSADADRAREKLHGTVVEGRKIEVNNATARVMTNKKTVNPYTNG", "assay": "EMSA; HiTS-Eq, 1 nM pool, 10 min; buffer printed only for the single-RNA assays: 10 mM Tris pH 7.5, 150 mM NaCl, 3.4 mM EDTA, 0.001% NP-40, 30 C", "conditions": "tags: His6 N-terminal (pET28a); label: 5' 32P", "summary_of_the_method": "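Purified wild-type or mutant RbFox RRM at increasing concentrations was equilibrated with 1 nM of 5′-radiolabelled RNA carrying 7 randomized nucleotides for 10 min in 50 µL. Unbound RNA was separated by 8% native PAGE and sequenced. Relative association constants came from read-count changes of each RNA species compared with the control reaction, normalised to the cognate motif.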", "values": [
      {"binder": "B1", "binding signal": "0.0104 KA relative to UGCAUGU"},
      {"binder": "B2", "binding signal": "0.00119 KA relative to UGCAUGU"},
      {"binder": "B3", "binding signal": "0.00505 KA relative to UGCAUGU"},
      {"binder": "B4", "binding signal": "0.00854 KA relative to UGCAUGU"},
      {"binder": "B5", "binding signal": "0.00549 KA relative to UGCAUGU"},
      {"binder": "B6", "binding signal": "0.00977 KA relative to UGCAUGU"},
      {"binder": "B7", "binding signal": "0.0116 KA relative to UGCAUGU"},
      {"binder": "B8", "binding signal": "0.00933 KA relative to UGCAUGU"},
      {"binder": "B9", "binding signal": "0.0159 KA relative to UGCAUGU"},
      {"binder": "B10", "binding signal": "0.00604 KA relative to UGCAUGU"},
      {"binder": "B11", "binding signal": "0.0282 KA relative to UGCAUGU"},
      {"binder": "B12", "binding signal": "0.0125 KA relative to UGCAUGU"},
      {"binder": "B13", "binding signal": "0.00299 KA relative to UGCAUGU"},
      {"binder": "B14", "binding signal": "0.0104 KA relative to UGCAUGU"},
      {"binder": "B15", "binding signal": "0.00523 KA relative to UGCAUGU"},
      {"binder": "B16", "binding signal": "0.0271 KA relative to UGCAUGU"},
      {"binder": "B17", "binding signal": "0.0156 KA relative to UGCAUGU"},
      {"binder": "B18", "binding signal": "0.0066 KA relative to UGCAUGU"},
      {"binder": "B19", "binding signal": "0.00238 KA relative to UGCAUGU"},
      {"binder": "B20", "binding signal": "0.0139 KA relative to UGCAUGU"}
    ]}
  ]
}
